Measured values published in PubChem BioAssay AID1159614 (National Center for Advancing Translational Sciences (NCATS), 2016).
Out of some 45,000 compounds screened, about 65 (0.1%) were called active. The call rests on the fitted dose curve; in most records, active means well fitted activation curve with a large enough effect; inconclusive means small, poorly fitted or top-dose-only effect; inactive means no such curve, though single readings can be large or run the other way. The list shows a part of the results.

What follows are molecules tested against Galactocerebrosidase (Homo sapiens) (UniProt P54803) (assay: A Novel Cell-Based Assay to Identify Small Molecules for B -Galactocerebrosidase). Details: 145M-Twi-hGALC-G270D cells (Twitcher mouse brain line with human GALC G270D), HMU-beta-Gal fluorescence, 48 h; series mostly up to 57.5 µM; activation: at the top concentration.
In short: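 Fluorogenic HMU-b-Gal hydrolysis (0.1 mM final, pH 5.2 citrate-phosphate with 1 mg/mL sodium taurocholate; carbonate stop buffer) measures mutant GALC activity after compound treatment of live 145M-Twi Twitcher brain cells stably carrying human GALC-G270D, with wild-type GALC line alongside; activation sought.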
Further: 0% is about no effect; nearly all actives have a fitted effect of over 65% in size.

UniProt P54803, sequence (P54803 whole entry, looked up): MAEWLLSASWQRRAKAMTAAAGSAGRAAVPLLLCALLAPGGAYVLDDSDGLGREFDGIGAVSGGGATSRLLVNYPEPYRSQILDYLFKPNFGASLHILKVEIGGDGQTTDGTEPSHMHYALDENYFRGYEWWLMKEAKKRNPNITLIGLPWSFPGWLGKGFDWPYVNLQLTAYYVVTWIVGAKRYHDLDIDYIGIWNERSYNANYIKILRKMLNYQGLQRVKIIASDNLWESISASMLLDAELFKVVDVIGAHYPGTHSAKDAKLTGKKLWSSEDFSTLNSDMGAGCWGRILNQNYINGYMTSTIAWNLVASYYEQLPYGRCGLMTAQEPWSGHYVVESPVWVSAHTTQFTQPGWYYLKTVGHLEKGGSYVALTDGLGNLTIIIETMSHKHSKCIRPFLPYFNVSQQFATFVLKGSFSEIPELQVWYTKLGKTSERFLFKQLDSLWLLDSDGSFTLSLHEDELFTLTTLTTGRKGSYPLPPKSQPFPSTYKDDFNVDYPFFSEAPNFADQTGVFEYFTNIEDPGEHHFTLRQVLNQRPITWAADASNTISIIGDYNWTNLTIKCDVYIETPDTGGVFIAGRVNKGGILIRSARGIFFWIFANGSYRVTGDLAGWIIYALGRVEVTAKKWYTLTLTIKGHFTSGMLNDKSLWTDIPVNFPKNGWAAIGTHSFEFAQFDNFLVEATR

activation, inactive:
Cc1nnc2c(N3CCN(c4ccccc4)CC3)nc3ccc(C(=O)c4ccccc4)cc3n12 -15.9%, Cc1ccc2nc(NS(=O)(=O)c3ccc(Cl)cc3)c(Nc3ccc(C(=O)O)cc3)nc2c1 -13.7%, CCc1ccc(-c2cn3c(n2)sc2cc(C(=O)NCC(C)c4ccccc4)ccc23)cc1 (configuration not stated) -9.83%, Cc1nc2c(C(=O)NCCc3ccc(Cl)cc3)c[nH]n2c(=O)c1Cc1ccccc1F -11.7%, Cn1c(=O)c2sccc2n2c(CCC(=O)N3CCN(c4cccc(Cl)c4)CC3)nnc12 -3.58%, O=C(C1CC1)N1CCc2cc(Br)cc(S(=O)(=O)N3CCN(c4ccccc4)CC3)c21 -14.5%, OCc1cccnc1 -9.8%, CCc1ccc(NS(=O)(=O)c2ccc(C(=O)N(C)C)s2)cc1 -32%, CCOc1ccc(/C=C(\C#N)C(=O)Nc2sc3c(c2C(=O)OC)C(C(=O)OC)CC3)cc1OC (configuration not stated) 2.13%, Cc1c(CNCCc2ccc(S(N)(=O)=O)cc2)c(C(=O)O)c(C)n1Cc1ccc(Cl)cc1 -10.1%, CCCCOC(=O)c1ccc(Nc2nc3ccccc3c3nnc(C)n23)cc1 5.19%, CCCCC(=O)Nc1nnc(S(=O)(=O)N(CC)c2cc(C)cc(C)c2)s1 -19.3%, CCc1ccccc1NC(=O)Cn1nnc(C(=O)NCc2cccs2)c1N -11%, CN(C(=O)CSc1nc2ccccc2n1CC(=O)N(C)c1ccc(F)cc1)c1ccccc1 -14.7%, CCN(c1ccccc1)S(=O)(=O)c1ccc(F)c(C(=O)Nc2ccc(C)cc2)c1 -2.47%, CCOc1ccc(Nc2oc(-c3ccc(COc4ccccc4C)o3)nc2C#N)cc1 -12.5%, Cc1nc(-c2cccc(F)c2)sc1CCNC(=O)c1ccc(F)c(F)c1 -12.5%, O=C(CSc1nccn1Cc1ccc(F)cc1)Nc1ccc2c(c1)OCO2 -14.9%, Cc1ccc(CNC(=O)CN2C(=O)C3(SCC(=O)N3c3cc(C)cc(C)c3)c3ccccc32)cc1 (configuration not stated) -13.8%, COc1ccc(CNCCSc2nnnn2-c2ccccc2)c(OC)c1 -14.9%, Cc1ccc(-n2nc(C(=O)Nc3ccc(C)c(F)c3)c(=O)n(C)c2=O)cc1 -9.63%, O=C(NC1CCCC1)c1ccc2c(=O)n(Cc3ccccc3)c(SCc3ccccc3)nc2c1 -14.1%, COc1ccc(-c2nc3ccc(C)cn3c2Nc2ccc3c(c2)OCO3)cc1 -10.7%, Cc1ccc(CNC(=O)CCCCn2c(=O)c3ccccc3n(Cc3ccc(C)cc3)c2=O)cc1 -8.86%, CCCCSCCCNC(=O)c1cn(C)c2ccc(S(=O)(=O)N3CCCC3)cc2c1=O -5.6%, Cc1cc(C)cc(OCC(=O)N(Cc2ccc(Cl)cc2)CC2CCCO2)c1 (configuration not stated) -8.18%, CCOC(=O)c1c(S(=O)(=O)N2CCC(C(=O)NCc3ccccc3OC)CC2)c(C)n(C)c1C -15.9%, CC1CCCCN1S(=O)(=O)c1cc2c3c(c1)CC(=O)N3CCC2 (configuration not stated) -5.2%, Cc1ccc(Nc2nc(Nc3ccc(C)c(C)c3)nc(N3CCOCC3)n2)cc1C -1.09%, COc1ccc(N2CCN(CCCNC(=O)c3cc(Nc4ccccc4OC)nc4ccccc34)CC2)cc1 3.87%, Cc1ccc(-n2nnnc2CNC(=O)c2ccccc2)cc1C -11%, COc1cc(C(=O)N2CCN(c3ccc(Nc4ccccc4)nn3)CC2)cc(OC)c1OC -17.4%, COc1cccc(C(=O)Nc2ccccc2-c2nc3ccccc3s2)c1 -10.4%, CCc1cccc(C)c1NC(=O)CN1C(=O)C2(SCC(=O)N2c2cc(C)cc(C)c2)c2ccccc21 (configuration not stated) -20.4%, CN(C)S(=O)(=O)c1ccc2c(c1)N(CC(=O)N1CCN(c3ccccc3F)CC1)CCS2 -15.4%, CC(C)Cc1ccc(CC(=O)O)cc1 4.68%, Cc1ccc(-c2nc(CS(=O)(=O)CC(=O)NCc3ccccc3Cl)c(C)o2)cc1 -15.9%, Cc1cccc(CNC(=O)CN2C(=O)CCCc3ccccc32)c1 -7.29%, O=C(Cn1c(=O)n(Cc2ccc(C(=O)NCc3ccccc3Cl)cc2)c(=O)c2ccccc21)Nc1ccc(F)c(Cl)c1 -8.01%, COc1cc(C(=S)N2CCOCC2)cc(OC)c1OC -12.2%, COc1ccc(N2CC(NC(=O)COc3ccc4ccccc4c3)CC2=O)cc1 (configuration not stated) 12.2%, O=C(Cn1c(-c2cccs2)cc2ccccc21)NCc1ccccc1Br -6.22%, Cc1cccc(NC(=O)c2sc(-n3nc(C)c(CCC(C)C)c3C)nc2C)c1C -10.9%, COc1cc(OC)cc(C(=O)Nc2cccc(-c3cn4cccnc4n3)c2)c1 -11.2%, O=S(=O)(c1ccc2[nH]c3c(c2c1)CCCCC3)N1CCN(c2cccc(Cl)c2)CC1 -18.9%, Cc1ccccc1CNC(=O)c1sc2ncnc(N(C)C3CCCCC3)c2c1C -8.28%, NC(N)=NCCC[C@H](N)C(=O)O -25.1% [at 5.77 µM], Cc1oc(-c2cccc(Cl)c2)nc1CN1CCCC(C(=O)NCc2ccc(Cl)cc2)C1 (configuration not stated) -19.5%, CC1=C(C(=O)Nc2cccc(C(F)(F)F)c2)C2(CCCCC2)OC1=O -17.6%, O=c1c2cc3c(nc2ncn1Cc1ccc(Cl)cc1)CCCC3 -25.6%, CCOC(=O)C1CCN(c2c(C(=O)c3ccc(C)cc3)cnc3ccc(F)cc23)CC1 -13.4%, COc1ccc(NC(=O)CN2C(=O)c3ccccc3Sc3ccc(C(=O)N4CCOCC4)cc32)c(OC)c1 -3.47%, Cc1nc2ncnn2c(C)c1CCC(=O)N1CCN(c2cccc(Cl)c2)CC1 -13.6%, CCOC(=O)c1cccc(NS(=O)(=O)c2cc3[nH]c(=O)c(=O)[nH]c3cc2C)c1 -7.48%, CC1CCC2(CC1)N=C(c1ccccc1)C(=O)N2CC(=O)Nc1ccc(F)c(Cl)c1 (configuration not stated) -1.67%, COc1cccc(CNC(=O)COCc2cc(-c3ccc4c(c3)OCO4)on2)c1 -16.1%, COc1cccc(CNC(=O)c2ccc3c(c2)nc2n3CCCCC2)c1OC -13.2%, CCc1ccc(NC(=O)c2nnn(Cc3cccc(C(F)(F)F)c3)c2N)cc1 -21%, COc1cc(C(=O)OCc2cc(=O)n3nc(C(C)C)sc3n2)cc(OC)c1OC -9.33%, CCOc1ccccc1NC(=O)CN1CCCN(Cc2cccc(Cl)c2)S1(=O)=O -8.94%, CCn1c(CN2CCOCC2)nc2cc(NC(=O)c3ccc([N+](=O)[O-])cc3)ccc21 -16.5%, CCOc1ccc(-c2nc(SCC(=O)NCCCOC)c(-c3ccccc3)[nH]2)cc1 -16.4%, Cc1c(C(=O)N(Cc2ccc(Cl)cc2)CC2CCCO2)oc2ccc(F)cc12 (configuration not stated) -10.8%, COc1ccccc1CNC(=O)CSc1ncc2c(n1)-c1cc(Cl)ccc1N(Cc1ccccc1)S2(=O)=O -11.3%, CCc1ccc(NC(=O)C2=CC(c3ccc4c(c3)OCO4)=NS(=O)(=O)N2C)cc1 -9.46%, COc1ccc(NC(=O)Nc2c[nH]c(=O)[nH]c2=O)c(OC)c1 -6.98%, Cc1cccc(-n2c(C)nc3cc(C(=O)NC4CCCCCC4)ccc32)c1 -10.1%, O=C(CS(=O)(=O)c1cccc2nsnc12)Nc1cc(F)ccc1F -21.2%, O=C(Cc1ccccc1F)N1CCC(c2nc3c(nnn3Cc3ccc(F)cc3)c(=O)[nH]2)CC1 -13.2%, COc1ccccc1Oc1c(NS(=O)(=O)c2ccc(C(C)(C)C)cc2)nc(-c2ncccn2)nc1OCCO -12.4%, CSc1ccc(CC2C(=O)Nc3ccccc32)cc1 (configuration not stated) -6.58%, O=C(CSCc1cc(=O)c2cc(F)ccc2[nH]1)Nc1ccccc1Cl -11.6%, COC(=O)c1cc2oc3ccccc3c2n1Cc1nc(-c2ccccc2C)oc1C 3.1%, CCc1ccccc1NC(=O)CSc1nnc2ccc3ccccc3n12 -9.17%, Cc1cccc(N2CCN(S(=O)(=O)c3cc(C(=O)Nc4ccccc4Cl)ccc3F)CC2)c1C -9.42%, Cc1ccc(NC(=O)[C@@H](c2ccccc2)N2Cc3ccccc3C2=O)cc1 -11.6%, CCC(C)NC(=O)CCc1c(C)nc2nc(-c3cc(OC)cc(OC)c3)nn2c1C (configuration not stated) -16.3%, CC(C)(C)OC(=O)N1CCC(c2c(C(=O)NCCN3CCC(Cc4ccccc4)CC3)cnn2-c2ccc(F)cc2)CC1 -8.98%, Cc1ccc2[nH]c(CSc3nnc(NC(=O)c4ccc(Cl)cc4)s3)cc(=O)c2c1 -13.7%, Brc1ccc(-n2nc(-c3ccccc3)c3cnc4cc5c(cc4c32)OCO5)cc1 -1.23%, COc1ccc(OC)c(CCNc2nc3ccccc3c3nc(-c4cccnc4)nn23)c1 5.94%, CCc1ccc(OCC2c3cc(OC)c(OC)cc3CCN2C(=O)COc2ccccc2)cc1 (configuration not stated) -22.5%, CCCN(C(=O)c1coc(=O)c2ccccc12)c1ccccc1C -18.1%, Cc1ccc(CCNC(=O)C2CCN(Cc3nc(-c4ccccc4C)oc3C)CC2)cc1 8.35%, Cc1cc(S(=O)(=O)C(CNC(=O)COc2ccc(Cl)cc2)c2cccs2)ccc1F (configuration not stated) 9.92%, Cc1cc(=O)[nH]c(=S)[nH]1 -12.5%, CCCN(CCC)C(=O)c1c2c(nc3ccccc13)C(=O)N(C1CCCCC1)C2 -20.8%, COc1cccc(NC(=O)C(Cc2ccccc2)NS(=O)(=O)c2ccc3c(c2)oc(=O)n3C)c1 (configuration not stated) -3.14%, Cc1coc2cc3oc(=O)c(CC(=O)NCCc4ccccc4)c(C)c3cc12 -9.41%, CCOc1ccc(CCNC(=O)CCc2cn(Cc3ccc(F)cc3)c3ccccc23)cc1 -10.9%, COc1ccc(-n2nc(C(=O)Nc3cccc(C)n3)c3c4ccccc4n(C)c3c2=O)cc1Cl 3.62%, CCn1c(=O)cc(OCC(=O)Nc2cc(Cl)c(OC)cc2OC)c2ccccc21 -16.3%, CCOc1ccc(CCNC(=O)c2cc3c(-c4ccc(OC)c(OC)c4)nn(C)c3s2)cc1OCC -4.66%, CCOc1ccc(NC(=O)Cn2cc(C(=O)c3ccco3)c3ccccc32)cc1 -15.4%, Cc1ccc(N2C(=O)CSC23C(=O)N(CC(=O)Nc2ccc(C(C)C)cc2)c2ccccc23)cc1C (configuration not stated) -16.4%, COc1ccc(OC)c(NC(=O)c2cnn(-c3ccc(C)cc3)c2C2CCNCC2)c1 -23.2%, CCc1ccccc1N(C)C(=O)c1cc2c(=O)oc3ccccc3c2s1 -9.09%
